# Results published in PMC4336329 (PLoS ONE, 2015).
# Hit rate of the full screen: of about 310,000 compounds, about 14,000 (4.5%) showed an effect of 50% or more. The effect is printed as a negative number. The list shows a part of the results.
# Target: human ether-à-go-go-related gene (hERG) potassium channel (human, UniProt Q12809)
# Test: primary screen, population patch clamp on CHO cells stably expressing hERG
# 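Also: peak tail current of the secondary pulse compared with the same well before compound.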
# human ether-à-go-go-related gene (hERG) potassium channel, sequence (Q12809 whole entry, looked up): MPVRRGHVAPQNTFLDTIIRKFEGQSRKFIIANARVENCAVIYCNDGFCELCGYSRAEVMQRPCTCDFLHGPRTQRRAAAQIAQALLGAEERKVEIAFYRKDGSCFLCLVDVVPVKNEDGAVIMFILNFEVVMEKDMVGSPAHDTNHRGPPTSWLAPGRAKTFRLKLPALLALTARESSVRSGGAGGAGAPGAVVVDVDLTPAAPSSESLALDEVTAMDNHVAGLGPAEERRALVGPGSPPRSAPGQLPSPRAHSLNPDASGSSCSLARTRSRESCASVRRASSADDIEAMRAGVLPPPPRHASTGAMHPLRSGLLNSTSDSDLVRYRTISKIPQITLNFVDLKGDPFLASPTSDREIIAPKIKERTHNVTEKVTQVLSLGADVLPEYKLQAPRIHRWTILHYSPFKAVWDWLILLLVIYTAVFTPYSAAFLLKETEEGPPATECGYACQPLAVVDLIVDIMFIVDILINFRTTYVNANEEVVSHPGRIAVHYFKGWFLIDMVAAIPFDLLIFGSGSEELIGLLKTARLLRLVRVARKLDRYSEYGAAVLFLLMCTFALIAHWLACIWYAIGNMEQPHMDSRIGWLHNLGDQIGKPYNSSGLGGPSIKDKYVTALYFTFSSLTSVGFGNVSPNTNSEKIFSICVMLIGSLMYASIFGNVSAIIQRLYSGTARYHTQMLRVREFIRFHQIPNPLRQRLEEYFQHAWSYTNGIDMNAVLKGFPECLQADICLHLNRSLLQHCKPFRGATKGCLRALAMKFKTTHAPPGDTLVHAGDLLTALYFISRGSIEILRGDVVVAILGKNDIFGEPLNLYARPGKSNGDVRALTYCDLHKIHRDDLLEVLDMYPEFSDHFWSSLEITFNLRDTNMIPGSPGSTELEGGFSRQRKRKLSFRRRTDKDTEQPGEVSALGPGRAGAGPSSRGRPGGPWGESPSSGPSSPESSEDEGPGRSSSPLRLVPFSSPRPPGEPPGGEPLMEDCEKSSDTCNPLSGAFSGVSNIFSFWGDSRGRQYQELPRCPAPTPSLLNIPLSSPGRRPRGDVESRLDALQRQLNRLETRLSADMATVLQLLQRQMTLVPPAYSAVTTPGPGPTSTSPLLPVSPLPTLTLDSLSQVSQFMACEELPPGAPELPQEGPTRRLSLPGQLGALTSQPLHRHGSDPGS
row,Structure (SMILES),"hERG current change (%, negative = inhibition) at 10uM [%]"
1,CCOc1ccc2[nH]c(=O)c(C(c3nnnn3C3CCCCC3)N3CCN(C)CC3)cc2c1 (centres unmarked),-19.8
2,CCOc1ccc2[nH]c(S(=O)(=O)CC)nc2c1Cl,17.3
3,COc1ccccc1OCCn1c(C(C)O)nc2ccccc21 (centres unmarked),7.4
4,COc1ccc(/C=C(/C#N)C(=O)Nc2cc(C)ccc2C)cc1C(=O)O,4.23
5,Cc1cc(NC(=O)c2ccc(C)o2)no1,17.8
6,Cc1ccc2[nH]c(=O)c(CN(CCCN3CCOCC3)C(=O)NC3CCCCC3)cc2c1,-25.7
7,Cc1c(CCC(=O)N[C@@H](C)C(=O)O)c(=O)oc2cc3occ(-c4ccccc4)c3cc12,-1.45
8,Cc1cc([N+](=O)[O-])ccc1NC(=O)c1cncc(Br)c1,-12.5
9,O=C(N[C@@H](Cc1ccccc1)C(=O)OCc1ccccc1)c1nc[nH]c1C(=O)N1CCN(c2ccccc2)CC1,3.18
10,CC1CCC/C(=N/Nc2ccc([N+](=O)[O-])cc2[N+](=O)[O-])C1 (centres unmarked),-17.6
11,COc1ccc(NC(=S)N(CCC(C)C)C2CCN(C(C)C)CC2)cc1Cl,-68.1
12,O=C(c1ccccc1)C1CCN(C(=O)Nc2ccccc2)CC1,-2.26
13,Cc1[nH]nc(N)c1N=Nc1ccc(Br)cc1,13.1
14,CCN(c1cccc(C)c1)C(C(=O)Nc1ccc(OC)cc1)c1cc2c(cc1[N+](=O)[O-])OCO2 (centres unmarked),21.1
15,COc1ccccc1CNC(=O)c1ccc(OC(F)F)c(OC)c1,-32.1
16,Cc1[nH]c2ccc(C(=O)NCCCN3CCCC3)cc2c1C,9.34
17,CCOC(=O)CCNC(=O)Nc1ccc2nc(C)n(Cc3ccccc3Cl)c(=O)c2c1,-1.79
18,O=C(CN1C(=O)c2ccccc2C1=O)c1ccccc1,7.95
19,O=S(=O)(/C=C/c1ccccc1)n1cnc2ccccc21,4.46
20,CCOC(=O)c1[nH]c(C)c(C(=O)N2CCN(c3ccc(F)cc3)CC2)c1C,-7.49
21,Cc1cc(C)nc(SCC(=O)NC2=NN=C(c3ccc(Br)cc3)CS2)n1,-4.44
22,COc1ccccc1/C=C/C=N/NC(=O)c1cccs1,6.69
23,CCCS(=O)(=O)N1CCCC(C(=O)Oc2ccc(C)c(C)c2)C1 (centres unmarked),11.6

row,Structure (SMILES),"hERG current change (%, negative = inhibition) at 10uM [%]"
1,CCOC(=O)C1CCCN(c2c(N3CCN(C)CC3)c(=O)c2=O)C1 (centres unmarked),8.41
2,CCN(CC(=O)Nc1cc(Cl)ccc1C)C(=O)C1CC1,7.6
3,CCc1cc2c(=O)c(Oc3ccccc3F)c(C)oc2c(CN(C)C)c1O,4.47
4,CC1=C(C#N)C(=O)NC(C)(C)C1,15.6
5,CCCCC(=O)NNC(=S)NC(=O)c1ccc([N+](=O)[O-])cc1,9.04
6,CCc1ccc(S(=O)(=O)N/N=C(/C)c2ccncc2)cc1,-20.1
7,NNC(=O)c1ccc([N+](=O)[O-])c(CS(=O)(=O)c2ccc(Cl)cc2)c1,-23
8,CC(=O)Nc1ccc(S(=O)(=O)N2CCN=C2SCc2cccc(C)c2)cc1,-15.5
9,CCC(=O)N1CCN(c2ccc(NC(=O)c3ccc(N4CCCC4)c([N+](=O)[O-])c3)cc2)CC1,7.43
10,COc1ccc(N2CCN(C3CCCN(Cc4cccc(OC)c4)C3)CC2)cc1 (centres unmarked),-64.4
11,CC(C)Oc1ccc(C(=O)N2CCCC2C(=O)O)cc1 (centres unmarked),12.2
12,COCc1cc(C)c2c(N)c(C#N)sc2n1,-3.95
13,CCCOP(=O)(c1ccc(N(C)C)cc1)C(O)c1ccc(Br)cc1 (centres unmarked),-2.71
14,Cc1csc(NC(=O)c2ccc(S(C)(=O)=O)cc2)n1,-5.37
15,Cc1ccccc1-n1c(Cn2c(=O)sc3ccccc32)nnc1SCC(=O)NCC1CCCO1 (centres unmarked),-2.85
16,Cc1cc2c(nn1)CCc1c-2no[n+]1[O-],17.1
17,CCOc1ccc(CCNC(=O)C2CCN(S(=O)(=O)N3CCCCC3)CC2)cc1OCC,-12.4
18,COc1cccc(-c2ncc3ccccc3c2COC(=O)c2ccc(C(C)(C)C)cc2)c1,13.3
19,O=C(c1cc(-c2ccc(Cl)c(Cl)c2)on1)N1CCCCC1,-16.9
20,COc1ccc(-c2csc(NC(=S)NC(=O)/C=C/c3ccccc3)n2)cc1Br,20.1
21,C=CCN1C(=O)c2oc3ccccc3c(=O)c2C1c1ccc(O)c(OC)c1 (centres unmarked),10.7
22,COc1ccc2[nH]c(C)c(CCN3C(=O)OC(C)(C)C3(C)O)c2c1 (centres unmarked),9.02
23,O=C(Nc1ccccc1F)C1COc2ccccc2O1 (centres unmarked),7.79

row,Structure (SMILES),"hERG current change (%, negative = inhibition) at 10uM [%]"
1,COC(=O)c1c(NC(=O)COC(=O)CCNS(=O)(=O)c2ccc(NC(C)=O)cc2)sc(C)c1C,-15.8
2,O=C(Cn1cnc2c(cnn2-c2ccc(Cl)cc2)c1=O)NCCc1ccccc1,13.3
3,Cc1ccc(CN2CCCN(C)CC2)c(C)c1,11.4
4,O=C(C1CCN(S(=O)(=O)N2CCC3(CC2)OCCO3)CC1)N1CCOCC1,19.9
5,COc1ccc2c(-c3ccccc3)cc(=O)[nH]c2c1,1.14
6,COc1ccc(C(=O)N2CCc3cc(OC)c(OC)cc3C2c2ccc(OC)c(OC)c2)cc1OC (centres unmarked),1.43
7,O=C1OCCN1CCN(CN1C(=O)CCC1=O)CN1C(=O)CCC1=O,2.25
8,Cc1ncc(CN2CCCC(C(=O)c3sccc3C)C2)s1 (centres unmarked),24.7
9,Cc1ccc(NC(=O)COC(=O)c2ccc3c(=O)n4c(nc3c2)CCC4)c(Br)c1,14
10,Cc1cc(OCC(=O)N2CCC(C(N)=O)CC2)c2c3c(c(=O)oc2c1)CCCC3,0.283
11,CC(NC(=O)CN1C(=O)NC2(CCCCCC2)C1=O)c1ccccc1Cl (centres unmarked),-7.3
12,Cc1cc(N2C(=O)C3CC=CC(C)C3C2=O)no1 (centres unmarked),16.5
13,COc1ccc(/C=C/C2=CCN(C)CC2)cc1.Cl,-19.7
14,CCOC(=O)C(NC(=O)Cc1ccccc1)(Nc1cc(C)on1)C(F)(F)F (centres unmarked),3.97
15,O=C(COC(=O)/C=C/c1ccc(F)cc1)Nc1ccccc1-c1ccccc1,13
16,CN(CCC1CCOCC1)C(=O)C1CCC(=O)N(CCc2ccccc2)C1 (centres unmarked),-15.1
17,CSc1ccccc1C(=O)N1CCC(CCC(=O)NCc2ccc(F)cc2)CC1,-12.4
18,O=C(O)c1ccccc1-n1c(-c2ccccc2)cc2c1CCCC2=O,10.4
19,S=C(NCc1ccc(Cl)cc1)Nc1ccc(Cl)cc1Cl,5.81
20,CCn1c(COc2cccc(C)c2)nnc1SCC(=O)Nc1cccc(C(=O)OC)c1,-2.45
21,Cn1cc(S(=O)(=O)NCc2cccs2)c(=O)n(C)c1=O,3.21
22,COc1ccc(OC(=O)CN2C(=O)C3C4CCC(C4)C3C2=O)cc1 (centres unmarked),4.71
23,O=C(O)CCC(=O)N1N=C(c2ccc(Br)cc2)CC1c1cccc(Br)c1 (centres unmarked),10.1

row,Structure (SMILES),"hERG current change (%, negative = inhibition) at 10uM [%]"
1,COC(=O)C(Cc1ccc(O)cc1)NC(=O)CCC(=O)Nc1ccc(S(N)(=O)=O)cc1 (centres unmarked),-1.23
2,Cc1nc(N2CCN(Cc3ccccc3)CC2)c(C#N)c2c1COC(C)(C)C2,-5.21
3,CCOC(=O)C1CN(S(=O)(=O)c2ccc(C)cc2)c2ccccc2O1 (centres unmarked),16.8
4,COc1cccc(CN2CCc3[nH]c(=S)[nH]c(=O)c3C2)c1,15.9
5,COc1ccc(CCNCc2ccccc2F)cc1OC.Cl,-7.61
6,COc1cccc(CN(C(=O)Cc2c[nH]c3ccccc23)C(C(=O)NC2CCCCC2)c2cccs2)c1 (centres unmarked),33.9
7,COc1cccc(/C=N/c2nc3ccccc3n2C)c1O,8.75
8,CCCc1nnc(NC(=O)CCC(=O)NC2CCCC2)s1,7.93
9,CN(C)S(=O)(=O)c1cccc(COc2cccnc2[N+](=O)[O-])c1,-5.22
10,COc1ccccc1N(C)S(=O)(=O)c1ccc(C(=O)NC(C)(C)C)cc1,-0.104
11,C/C=C(\C)C(=O)NCCN1C2=NC[C@@H](C)N2C[C@@H]1Cc1ccc(OC)cc1,0.0958
12,COc1ccc(NC(=O)C2CCN(C(=O)Cc3ccccc3)CC2)c(OC)c1,20.1
13,Nc1nc(SCc2cccc([N+](=O)[O-])c2)n[nH]1,29.4
14,COCC(C)NC(=O)/C(=C/c1ccccc1)c1ccccc1 (centres unmarked),-25
15,CCOC(=O)c1sc(=S)n(CC)c1N,0.458
16,CCCCCCn1c(N)c(C(=O)NCCN2CCOCC2)c2nc3ccccc3nc21,-8.61
17,CC(C)CC(=O)N1CCC(N(CCc2ccccc2)Cc2ccccc2)CC1.O=C(O)C(=O)O,-46.8
18,CC1CC(C)CN(C(=O)COC(=O)c2ccc3ncsc3c2)C1 (centres unmarked),-11.4
19,O=S(=O)(c1cccc(C(F)(F)F)c1)N1CCN(c2cnccn2)CC1,-3.63
20,Cc1cc(C(=O)OCC(=O)Nc2ccccc2Cl)c(C)o1,7.67
